{"source": "PubChem BioAssay (NCATS)", "key": {"[1]": {"assay": "Cellular Toxicity (caspase-3) NIH 3T3 (AID 666); also: potency is read from the fitted curve at half-maximal effect", "how_it_was_run": "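Cells were plated at 1000 per well and incubated 5 hr at 37°C, then compound was added for 16 hr. Caspase-Glo 3/7 reagent followed for 20 min at room temperature before luminescence was read.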"}, "[2]": {"biological_target": "Peroxisome proliferator-activated receptor alpha (Homo sapiens) (UniProt Q07869)", "sequence (Q07869 whole entry, looked up, the tested form may be a part)": "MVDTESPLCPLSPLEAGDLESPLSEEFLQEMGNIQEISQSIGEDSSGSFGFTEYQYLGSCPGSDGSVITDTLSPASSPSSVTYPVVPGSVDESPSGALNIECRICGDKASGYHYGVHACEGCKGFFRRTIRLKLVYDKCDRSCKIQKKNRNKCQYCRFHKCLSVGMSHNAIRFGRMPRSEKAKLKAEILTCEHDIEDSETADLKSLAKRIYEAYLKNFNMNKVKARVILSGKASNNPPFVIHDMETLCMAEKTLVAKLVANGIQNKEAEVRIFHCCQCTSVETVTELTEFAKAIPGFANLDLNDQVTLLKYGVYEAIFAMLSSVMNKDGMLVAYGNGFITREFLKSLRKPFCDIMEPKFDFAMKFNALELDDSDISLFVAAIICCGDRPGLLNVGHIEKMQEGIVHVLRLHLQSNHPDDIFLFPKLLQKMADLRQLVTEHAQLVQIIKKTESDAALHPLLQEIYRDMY", "assay": "qHTS assay for small molecule agonists of the peroxisome proliferator-activated receptor alpha (PPARalpha) signaling pathway (AID 651778); also: potency is read from the fitted curve at half-maximal effect", "details": "PathHunter PPARalpha complementation, chemiluminescence, 6 h; max response: active compounds read high", "how_it_was_run": "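Enzyme-fragment complementation assay in which ligand-bound PPARalpha translocates and forms an active enzyme that generates chemiluminescence. Cells were plated overnight, exposed to compound for 6 hr at 37 C, and then given detection reagent for 60 min at room temperature.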"}, "[3]": {"biological_target": "Cytochrome P450 3A4 (Homo sapiens) (UniProt P08684)", "sequence (P08684 whole entry, looked up)": "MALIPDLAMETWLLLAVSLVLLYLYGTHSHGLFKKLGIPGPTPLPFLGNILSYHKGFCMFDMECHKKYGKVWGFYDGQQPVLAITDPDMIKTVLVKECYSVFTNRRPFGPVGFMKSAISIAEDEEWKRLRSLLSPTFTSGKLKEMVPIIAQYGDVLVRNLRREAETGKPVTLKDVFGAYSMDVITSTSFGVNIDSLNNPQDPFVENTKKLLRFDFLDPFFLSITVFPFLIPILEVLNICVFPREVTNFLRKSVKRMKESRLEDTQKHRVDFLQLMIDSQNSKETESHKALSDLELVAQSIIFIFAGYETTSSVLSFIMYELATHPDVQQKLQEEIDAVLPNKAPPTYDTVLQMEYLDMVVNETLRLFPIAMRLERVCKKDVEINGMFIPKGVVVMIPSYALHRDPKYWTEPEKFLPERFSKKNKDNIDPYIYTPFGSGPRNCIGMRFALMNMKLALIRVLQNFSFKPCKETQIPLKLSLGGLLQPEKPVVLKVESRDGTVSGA", "assay": "qHTS Assay for Activators of Cytochrome P450 3A4 (AID 885); also: nearly all actives have a fitted effect of over 65% in size", "details": "recombinant CYP3A4, Luciferin-PPXE luminescence, 60 min; activity change, positive = activation: at 57.1 µM (top of the series)", "how_it_was_run": "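Luminescent readout of luciferin formed from 25 uM Luciferin-PPXE (KM level) by 20 nM CYP3A4 in 200 mM KPO4, with 60 min NADPH-driven reaction at room temperature after 10 min compound exposure. Ketoconazole (57 uM) defined 100% inhibition.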"}, "[4]": {"assay": "qHTS Assay for Identification of Small Molecule Agonists for Thrombopoietin (TPO) Signaling Pathway (AID 917); also: potency is read from the fitted curve at half-maximal effect", "how_it_was_run": "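Luciferase reporter (Glycoprotein IIb promoter) in IL-3-deprived Ba/F3 cells carrying human TPO receptor; compounds co-added with 26 pM TPO, incubated 24 h, 37 C. Steadylite luminescence measured after 10 min.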"}, "[5]": {"assay": "qHTS Assay for Identification of Small Molecule Antagonists for NFkB Signaling Pathway (AID 895; active = well fitted inhibition curve with a large enough effect in the signal ratio, with a control signal flat, not every such curve was filed as active; inconclusive = small, poorly fitted or top-dose-only effect, or effect the other way, or a change in a side signal; the % refers to the signal ratio)", "details": "NFkB beta-lactamase reporter cells, FRET ratio 460/530; activity change, negative = inhibition: at 38.3 µM (top of the series) unless noted", "how_it_was_run": "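ME-180 NFkB-bla cells (beta-lactamase under NFkB response element), plated overnight, treated with compound then 10 pM TNF alpha (about EC50) for 5 hrs at 37 C. LiveBLAzer FRET read at 460/530 nm emission, 405 nm excitation.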"}, "[6]": {"biological_target": "Muscarinic acetylcholine receptor M1 (Rattus norvegicus) (UniProt P08482)", "sequence (P08482 whole entry, looked up)": "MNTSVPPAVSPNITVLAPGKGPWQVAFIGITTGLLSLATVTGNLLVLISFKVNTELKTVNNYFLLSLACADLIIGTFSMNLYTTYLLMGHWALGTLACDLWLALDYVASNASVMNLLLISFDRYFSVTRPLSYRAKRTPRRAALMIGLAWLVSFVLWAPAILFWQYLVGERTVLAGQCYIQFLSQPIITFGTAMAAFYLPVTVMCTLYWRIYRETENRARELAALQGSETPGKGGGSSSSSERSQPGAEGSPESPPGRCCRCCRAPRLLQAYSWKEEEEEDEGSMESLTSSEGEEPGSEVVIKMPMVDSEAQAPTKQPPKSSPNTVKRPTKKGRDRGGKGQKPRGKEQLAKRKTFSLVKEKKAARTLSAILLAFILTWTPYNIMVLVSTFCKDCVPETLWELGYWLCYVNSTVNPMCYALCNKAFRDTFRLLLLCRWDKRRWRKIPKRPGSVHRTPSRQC", "assay": "qHTS Assay for Antagonists of Acetylcholine Muscarinic M1 Receptor: Kinetic Measurement of Intracellular Calcium Response (AID 943);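 also: Fluo-4 calcium signal as peak divided by basal fluorescence over 4 min; nearly all actives have a fitted effect of over 75% in size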", "how_it_was_run": "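Antagonism is measured as inhibition of the carbachol-evoked calcium rise in CHO cells transfected with rat M1. Cells are dye-loaded, exposed to compound for 10 min, then stimulated with 100 nM carbachol (EC80).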"}, "[7]": {"biological_target": "Cytochrome P450 2C19 (Homo sapiens) (UniProt P33261)", "sequence (P33261 whole entry, looked up)": "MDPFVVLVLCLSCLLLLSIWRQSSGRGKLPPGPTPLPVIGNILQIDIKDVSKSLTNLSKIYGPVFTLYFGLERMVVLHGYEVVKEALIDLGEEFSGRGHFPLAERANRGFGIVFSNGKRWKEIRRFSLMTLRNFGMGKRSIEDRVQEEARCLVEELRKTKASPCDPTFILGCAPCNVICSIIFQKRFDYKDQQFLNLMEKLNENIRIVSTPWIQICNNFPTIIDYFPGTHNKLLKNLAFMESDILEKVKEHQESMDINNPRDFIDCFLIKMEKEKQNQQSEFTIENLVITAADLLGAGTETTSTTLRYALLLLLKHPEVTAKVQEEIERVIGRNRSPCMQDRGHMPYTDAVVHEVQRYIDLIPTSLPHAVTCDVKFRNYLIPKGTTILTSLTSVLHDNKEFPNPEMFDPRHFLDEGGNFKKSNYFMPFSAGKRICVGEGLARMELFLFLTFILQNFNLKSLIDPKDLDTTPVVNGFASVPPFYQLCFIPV", "assay": "qHTS Assay for Inhibitors and Substrates of Cytochrome P450 2C19 (AID 899); also: potency is read from the fitted curve at half-maximal effect; nearly all actives have a fitted effect of over 60% in size", "how_it_was_run": "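Signal comes from luciferase acting on luciferin released by CYP2C19-mediated hydroxylation of Luciferin-H EGE, 10uM (KM). Assay mix: 5nM enzyme, 50mM KPO4; 60 min at 37C with NADPH regeneration. Data normalized against 57uM ketoconazole.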"}, "[8]": {"tested_on": "CP269", "assay": "qHTS profiling for inhibitors of Plasmodium falciparum proliferation (AID 504749); also: nearly all actives have a fitted effect of over 60% in size", "details": "P. falciparum in erythrocytes, SYBR Green DNA, 72 h; series mostly up to 28.7 µM", "how_it_was_run": "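Each compound contacts P. falciparum-infected red blood cells for 72 h at 37 C; lysis buffer (Tris, EDTA, saponin, Triton X, SYBR Green I) is added and fluorescence measured next morning; values normalized to controls.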"}, "[9]": {"assay": "MultiTox-Fluor Cytotoxicity Assay - LYMP1-001 - Dead Cells (AID 946)", "details": "LYMP1-001 lymphoblastoid cells, dead-cell protease fluorescence; cytotoxicity (dead cells): at 92.2 µM (top of the series)", "how_it_was_run": "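Cytotoxicity as increased dead-cell protease fluorescence (bis-AAF-R110, 485/520 nm), read 60 min after MultiTox-Fluor reagent. Human lymphoblastoid line exposed 16 h; Hill-fitted AC50, with DMSO as 0% and 15 uM tetraoctylammonium bromide as 100%.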"}, "[10]": {"assay": "Cell Viability - LYMP2-026 (AID 989); also: nearly all actives have a fitted effect of over 50% in size", "details": "LYMP2-026 lymphoblastoid cell viability, qHTS; activity change, negative = cytotoxic: at 92.2 µM (top of the series)", "how_it_was_run": "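Cells are seeded at 2500 per well and held 5 hr at 37 C. Compounds are added in concentration series for 24 hr, then CellTiter-Glo reagent is applied and luminescence read.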"}, "[11]": {"biological_target": "Bile acid receptor (Homo sapiens) (UniProt Q96RI1)", "sequence (Q96RI1 whole entry, looked up)": "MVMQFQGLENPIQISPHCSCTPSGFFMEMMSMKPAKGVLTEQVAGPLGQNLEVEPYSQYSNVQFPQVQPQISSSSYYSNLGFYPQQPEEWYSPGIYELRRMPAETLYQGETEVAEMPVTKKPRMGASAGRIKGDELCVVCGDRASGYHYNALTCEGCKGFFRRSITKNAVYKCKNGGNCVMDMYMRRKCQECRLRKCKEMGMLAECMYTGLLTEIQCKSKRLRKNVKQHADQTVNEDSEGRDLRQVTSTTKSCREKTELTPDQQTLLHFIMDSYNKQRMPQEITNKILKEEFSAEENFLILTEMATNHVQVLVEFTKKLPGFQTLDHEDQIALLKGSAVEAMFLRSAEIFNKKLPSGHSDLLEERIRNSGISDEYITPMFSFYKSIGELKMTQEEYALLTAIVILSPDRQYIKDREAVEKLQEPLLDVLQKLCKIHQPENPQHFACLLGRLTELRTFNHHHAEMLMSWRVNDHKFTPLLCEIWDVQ", "assay": "qHTS assay for small molecule antagonists of farnesoid X receptor signaling (AID 588526; calls by dose curve)", "details": "HEK293T FXR-UAS-bla, beta-lactamase ratio, antagonist mode; activity change, negative = inhibition: at 76.7 µM (top of the series)", "how_it_was_run": "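Antagonist mode: titrated compounds tested against chenodeoxycholic acid stimulation (normalized to 50 uM CDCA and DMSO) in GeneBLAzer HEK293T cells for 16 h. Beta-lactamase read by CCF4 fluorescence; IC50 from Hill fits.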"}, "[12]": {"assay": "MultiTox-Fluor Cytotoxicity Assay - LYMP1-001 - Live Cells (AID 947)"}, "[13]": {"assay": "Cell Viability - LYMP2-019 (AID 973); also: potency is read from the fitted curve at half-maximal effect; nearly all actives have a fitted effect of over 55% in size", "how_it_was_run": "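Cytotoxicity is scored as a concentration-dependent drop in cellular ATP after cells (2500/well) receive compound for 24 hr at 37 C. Tetraoctylammonium bromide serves as positive control.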"}, "[14]": {"assay": "Cell Viability - LYMP2-023 (AID 975); also: potency is read from the fitted curve at half-maximal effect; nearly all actives have a fitted effect of over 55% in size", "how_it_was_run": "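Steps: seed 2500 human lymphoblastoid cells per well, incubate 5 hr at 37 C, add compound for 24 hr at 37 C, add CellTiter-Glo, hold 30 min at room temperature, read luminescence. AC50 derived by Hill modelling.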"}, "[15]": {"assay": "Cell Viability - LYMP2-025 (AID 976)", "details": "LYMP2-025 lymphoblastoid cell viability; activity change, negative = cytotoxicity: at 92.2 µM (top of the series)", "how_it_was_run": "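Acute cytotoxicity is scored as a concentration-dependent fall in intracellular ATP, measured by luciferase luminescence, in human lymphoblastoid LYMP2-025 cells exposed to compound for 24 hours at 37 C. AC50 values come from standard Hill fits.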"}, "[16]": {"assay": "Cell Viability - LYMP2-017 (AID 972); also: potency is read from the fitted curve at half-maximal effect; nearly all actives have a fitted effect of over 55% in size", "how_it_was_run": "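Cytotoxicity is scored as a concentration-dependent drop in cellular ATP in a human lymphoblastoid line after 24 hr treatment at 37 C. Values are AC50s from Hill-equation modelling.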"}}, "note": "Inconclusive means that the source gave no clear call. Such entries were picked first, then a sample of the others. Entries that show only a call come without a potency. For some assays here: Where the call is inconclusive, the potency comes from a doubtful curve fit. The source made the active and inactive calls. Unless noted, calls follow the shape of the dose curve; as a rule, active = well fitted curve in the direction sought with a large enough effect; inconclusive = small, poorly fitted or top-dose-only effect, or another doubt; inactive = no such curve, though single readings can be large; an effect the other way counts as inactive or inconclusive. Tags tell the direction and shape of the fitted curve."}
{"smiles": "Nc1ccccc1C(=O)OCCc1ccccc1", "values": [{"measurement": "Potency", "setting": "[1]", "value": "inconclusive: 12.6 µM [falling, partial curve]"}, {"measurement": "Potency", "setting": "[2]", "value": "inconclusive: 2.51 µM [activator, single point]"}]}
{"smiles": "CC[C@@]1(c2ccc(N)cc2)CCC(=O)NC1=O", "values": [{"measurement": "Potency", "setting": "[3]", "value": "inactive"}, {"measurement": "Potency", "setting": "[4]", "value": "inactive"}]}
{"smiles": "NC[C@H](CP(=O)(O)O)c1ccc(Cl)cc1", "values": [{"measurement": "Potency", "setting": "[5]", "value": "inactive"}, {"measurement": "Potency", "setting": "[6]", "value": "inactive"}]}
{"smiles": "CC(=O)O[C@H]1CC[C@@]2(C)C(=CC[C@@H]3[C@H]2CC[C@]2(C)C(=O)CC[C@H]32)C1", "values": [{"measurement": "Potency", "setting": "[7]", "value": "inconclusive: 5.01 µM [inhibitor, single point]"}, {"measurement": "Potency", "setting": "[8]", "value": "inactive"}]}
{"smiles": "C=CCN1CC[C@@]23c4c5ccc(O)c4O[C@H]2/C(=N\\N=C2/CC[C@@]4(O)[C@H]6Cc7ccc(O)c8c7[C@@]4(CCN6CC=C)[C@@H]2O8)CC[C@]3(O)[C@@H]1C5", "values": [{"measurement": "Potency", "setting": "[4]", "value": "inconclusive: 12.6 µM [inhibitor, partial curve]"}]}
{"smiles": "C(CCOCC1CO1)COCC1CO1", "note": "(configuration not stated)", "values": [{"measurement": "cytotoxicity (dead cells)", "setting": "[9]", "value": "inconclusive: 34.7% [cytotoxic]"}, {"measurement": "Potency", "setting": "[10]", "value": "inactive"}, {"measurement": "Potency", "setting": "[11]", "value": "inactive"}]}
{"smiles": "N#CC(Br)Br", "values": [{"measurement": "Potency", "setting": "[12]", "value": "inactive"}, {"measurement": "Potency", "setting": "[13]", "value": "inconclusive: 31.6 µM [cytotoxic, partial curve]"}, {"measurement": "Potency", "setting": "[14]", "value": "inconclusive: 79.4 µM [cytotoxic, single point]"}, {"measurement": "Potency", "setting": "[15]", "value": "inactive"}]}
{"smiles": "O=[N+]([O-])c1ccccc1CCl", "values": [{"measurement": "Potency", "setting": "[16]", "value": "inconclusive: 79.4 µM [cytotoxic, single point]"}]}
